Assay results taken from PubChem BioAssay AID1745853 (National Center for Advancing Translational Sciences (NCATS), 2022).
Where “and” joins values, the source holds several entries; their conditions need not be identical. Equal entries are not always repeated. The list shows a part of the results. Further columns of the screen follow, without active or inactive calls.

Legend:
Experiment in all cases: Primary Screen for Target Class Profiling of Small Molecule Inhibitors of Methyltransferases
[1] = biological target: Glycine N-methyltransferase (Homo sapiens) (UniProt Q14749); conditions: purified enzyme, MTase-Glo SAH luminescence; measured here: GNMT inhibition; at 40 µM; stronger effect = lower value
Summary of the method: (§1)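 Each enzyme was assayed with SAM and its substrate. SAH formation detected by MTase-Glo luminescence; single-point 40 uM screen[…].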

[2] = biological target: Guanidinoacetate N-methyltransferase (Homo sapiens) (UniProt Q14353); conditions: purified enzyme, MTase-Glo SAH luminescence; measured here: GAMT inhibition; at 40 µM; stronger effect = lower value
Summary of the method: as §1

[3] = biological target: Histamine N-methyltransferase (Homo sapiens) (UniProt P50135); conditions: purified enzyme, MTase-Glo SAH luminescence; measured here: HNMT inhibition; at 40 µM; stronger effect = lower value
Summary of the method: as §1

[4] = biological target: Nicotinamide N-methyltransferase (Homo sapiens) (UniProt P40261); conditions: purified enzyme, MTase-Glo SAH luminescence; measured here: NNMT inhibition; at 40 µM; stronger effect = lower value
Summary of the method: as §1

[5] = biological target: Phenylethanolamine N-methyltransferase (Homo sapiens) (UniProt P11086); conditions: purified enzyme, MTase-Glo SAH luminescence; measured here: PNMT inhibition; at 40 µM; stronger effect = lower value
Summary of the method: as §1
On the % scale 0 is the no-effect control and ±100 the full control effect.

Compound | activity change, negative = inhibition [1] | activity change, negative = inhibition [2] | activity change, negative = inhibition [3] | activity change, negative = inhibition [4] | activity change, negative = inhibition [5]
CC1CC(C)CN(CCCN2C(=O)c3ccc(-c4ccco4)n3CC2(C)C(=O)NC2CCCCCC2)C1 (stereo not given) | -13.9% | 1.28% | -14.5% | -17.1% | -3.01%
CCOc1cccc(C2c3cccn3-c3sc4c(c3CN2C(=O)Nc2ccc(F)cc2)CCCC4)c1 (stereo not given) | -1.1% | 0% | 1.24% | -1.65% | 2.17%
Cc1cnc(-c2ccccc2)n1C1CCN(C(=O)c2ccco2)CC1 | -3.27% | -1.77% | 0.292% | -4.11% | -1.06%
O=C(NC1CCCCCC1)c1cc(-c2cc(Cl)cc(Cl)c2)c2nncn2n1 | -9.8% | -13.8% | -7.5% | -18.1% | -14.7%
CC(C)=CCc1ccc(Oc2c(O)cc(C)cc2CO)c(C(=O)O)c1O | 3.07% | 4.04% | 6.88% | -6.1% | 4.45%
CCCN1CCN(CCCN2C(=O)c3cc4occc4n3CC2(C)C(=O)NC2CCCCCC2)CC1 (stereo not given) | 0.732% | 3.92% | 4.53% | 1.83% | -0.916%
Cc1cc(Cn2cnc3c2C[C@@H](C(=O)O)N(C(=O)C(c2ccccc2)c2ccccc2)C3)ccc1N | -5.81% | 10.5% | 3.2% | -4.7% | 6.12%
CCCn1c(=O)c2cc(Cl)ccc2n2c(=O)n(CC(=O)Nc3cc(F)ccc3F)nc12 | 3.86% | 0% | 10.8% | 9.44% | 6.26%
CCCn1c(=O)c2ccc(C(=O)NC(C)C)cc2n2c(SCC(=O)Nc3ccc(C)c(C)c3)nnc12 | -2.63% | -4.22% | -0.046% | -9.74% | -3.46%
CCCn1c(=O)c2ccc(C(=O)NC(C)C)cc2n2c(=O)n(CC(=O)c3cc(C)ccc3C)nc12 | 6.11% | 0.406% | 12.1% | 4.44% | 7.33%
Cc1ccc(CN2C(=O)c3nc4ccccc4n3CC2(C)C(=O)NC2CCCCC2C)cc1 (stereo not given) | 1.3% | 3% | 5.74% | 5.29% | -0.581%
Cc1cnc(C(=O)N2CCCCCNC(=O)[C@@H]3CCC[C@@H]32)cn1 | -2.44% | -2.12% | -1.58% | -2.67% | 5.17%
CCC(C)NC(=O)c1ccc2c(=O)n(C3CC3)c3nn(CC(=O)NC4CCCC4)c(=O)n3c2c1 (stereo not given) | 7.42% | 0% | 12.3% | 3.63% | 5.98%
CN(Cc1ccccc1CN1CCCC1)C(=O)C1CC2(CCNCC2)CN1C (stereo not given) | -1.18% | -2.33% | -22.7% | -4.26% | -2.91%
COc1ccc2cc3n(c2c1)CC(C)(C(=O)NC1CCCC1)N(c1cccc(Cl)c1)C3=O (stereo not given) | -0.703% | 0% | 1.71% | -2.26% | -4.69%
O=C(NCc1cccc(O)c1)c1cc2cc(F)ccc2[nH]1 | -6.07% | 7.04% | 8.74% | -10.2% | 4.12%
CCCCCCC(=O)OC1CC(C)(C)NC(C)(C)C1 | 7.39% | 8.4% | 10.4% | -10.1% | -7.11%
CC(C)OCCCN1C(=O)c2nc3ccccc3n2CC1(C)C(=O)NC1CCCCCC1 (stereo not given) | 6.05% | 0% | 11% | 13.2% | 3.73%
CC[C@H]1OC(=O)C[C@@H](O)[C@H](C)[C@@H](O[C@@H]2O[C@H](C)[C@@H](O)[C@H](N(C)C)[C@H]2O)[C@@H](CCN2C[C@H](C)C[C@H](C)C2)C[C@@H](C)C(=O)/C=C/C(C)=C/[C@@H]1CO[C@@H]1O[C@H](C)[C@@H](O)[C@@H](OC)[C@H]1OC | 1.77% | 1.23% | 0.236% | -8.61% | -0.652%
CC(C)C(C#N)O[C@@H]1O[C@H](CO[C@@H]2O[C@@H](C)[C@H](O)[C@@H](O)[C@H]2O)[C@@H](O)[C@H](O)[C@H]1O (stereo not given in full) | 3.09% | 2.01% | 8.84% | -10.1% | -4.25%

Compound | activity change, negative = inhibition [1] | activity change, negative = inhibition [2] | activity change, negative = inhibition [3] | activity change, negative = inhibition [4] | activity change, negative = inhibition [5]
COc1ccc(CCN2CCN(CCCc3ccccc3)CC2)cc1OC | 1.71% | 4.81% | 0.46% | -12.5% | -4.97%
O=C1Cc2c([nH]c3ccc(Br)cc23)-c2ccccc2N1 | 0.521% | 1.64% and 12.3% | 4.88% | -10.1% and -5.1% | -1.06% and 0.505%
Cn1ncc(S(=O)(=O)Cc2ccccc2)c(Br)c1=O | 3.43% | 12.7% | 11.2% | -13.4% | 1.28%
COc1cc(-c2nnc3n(Cc4ccccc4Cl)c(=O)c4ccccc4n23)ccc1O | -11.8% | 1.45% | 3.51% | -1.97% | 0.165%
O=C(CC1=CCCCC1)N1CC(F)(F)C[C@H]1c1nc(C2CC2)no1 | -0.949% | 0.68% | 1.15% | -6.54% | -2.65%
COc1ccccc1N1CCN(CCCCNC(=O)c2ccc(-c3cscn3)cc2)CC1 | -0.536% | -5.64% | -20.4% | -26.6% | -12.8%
O=C(N[C@H]1CCOC[C@H]1C1CCOCC1)c1ccoc1 | -0.916% | 4.89% | 2.6% | -1.8% | 15.5%
Cc1cccc2[nH]c(CN(C)C(=O)c3ccc(CCC(C)(C)O)cc3)nc12 | -1.7% | -2.73% | -0.625% | -2.32% | 1.43%
CNCCCC12CCC(c3ccccc31)c1ccccc12 | -4.12% and -2.71% | 1.09% and 9.71% | 8.94% and 6.33% | -10.6% | 3.09% and -3.77%
CCc1ccc(CN2C(=O)c3c(C(=O)OC)ncn3CC2(C)C(=O)NC2CCCC2)cc1 (stereo not given) | -4.42% | 0.069% | 2.3% | 0.947% | -1.2%
NCC1CCN(c2nccc(-c3ccc4ccccc4c3)n2)CC1 | -9.76% | 4.42% | -6.74% | -14.4% | -3.1%
CCOC(=O)CCNc1cc(N2CCc3ccccc3CC2)nc(-c2cccnc2)n1 | 3.18% | 4.63% | 8.29% | -10.6% | 1.05%
COc1ccc(N2C(=O)c3cc4ccc(OC)cc4n3CC2(C)C(=O)NC2CCCC2)c(OC)c1 (stereo not given) | -10.1% | 0% | -2.73% | -19.6% | -4.29%
Cc1ccc(N2CCN(S(=O)(=O)c3cc4[nH]c(=O)[nH]c4cc3Cl)CC2)c(C)c1 | 14.4% | 0% | 13.2% | 4.32% | 7.01%
Cc1ccc(CN2C(=O)c3nc4ccccc4n3CC2(C)C(=O)NC2CCCC(C)C2C)cc1 (stereo not given) | -4.11% | 4.78% | -2.45% | -11.6% | -2.37%
COc1ccc(OC)c(CN2C(=O)c3ccc(-c4ccco4)n3CC2(C)C(=O)NCc2ccccc2)c1 (stereo not given) | -1.57% | 5.38% | -3.64% | -1.73% | -4.49%
C=CC1C(OC2OC(CO)C(O)C(O)C2O)OC=C(C(=O)OC)C1CC(=O)OCC1C(C)C(O)CC1C(CO)COC(=O)CC1C(C(=O)O)=COC(OC2OC(CO)C(O)C(O)C2O)/C1=C\C (stereo not given) | 2.61% | -0.696% | 12% | -13.2% | -8.07%
CCCn1c(=O)c2cc(F)ccc2n2c(SCC(=O)Nc3ccccc3OC)nnc12 | 1.36% | 1.06% | 13.5% | 1.74% | 8.9%
Cc1coc2c1C(=O)C(=O)c1c-2ccc2c1CCCC2(C)C | -50.6% | -9.19% | -17.7% | -27.1% | -36.5%
CCc1cc2c(cc3n2CC(C)(C(=O)NC2CCC(C)CC2)N(CCc2ccccc2)C3=O)s1 (stereo not given) | 2.84% | 0.891% | 4.76% | -1.81% | 1.3%

Compound | activity change, negative = inhibition [1] | activity change, negative = inhibition [2] | activity change, negative = inhibition [3] | activity change, negative = inhibition [4] | activity change, negative = inhibition [5]
COc1ccc(C(=O)N2CCC(C3CCN(S(C)(=O)=O)CC3)C2)cc1OC (stereo not given) | -1.94% | 2.23% | 0.825% | -1.71% | 15.2%
Cc1cn2cc(C(=O)N(C)CCO)cc(N[C@@H]3CCOc4cccc(C)c43)c2n1 | -4.45% | -6.33% | 2.37% | -17.5% | -12.6%
CN1C(=O)c2cc(C(=O)NCc3ccccc3Cl)nn2CC1(C)C(=O)NCc1ccccc1 (stereo not given) | 8.56% | 0% | 5.64% | 10.9% | 3.59%
O=C(COc1ccc2c(-c3ccccc3)cc(=O)oc2c1)OCc1ccccc1 | 2.45% | 1.34% | 2.48% | -0.363% | -3.73%
C[C@@H]1CC[C@]2(C(=O)O)CC[C@]3(C)C(=CCC4[C@]5(C)C(CC[C@]43C)C(C)(C)[C@@H](O)[C@H](O)[C@@H]5O)C2[C@]1(C)O (stereo not given in full) | 4.67% | 11.4% | 11.2% | -1.79% | 8.41%
CC(C)(C)n1nc(-c2cccc3ccccc23)c2c(N)ncnc21 | – | 6.87% | – | -29% | 4.47%
COCCN1Cc2nc(NCc3ccccc3)ccc2OCC1=O | -11.7% | -1.53% | -0.431% | 1.23% | 1.89%
COc1cc(C(=O)O)ccc1NC(=O)C1NC(CC(C)(C)C)C(C#N)(c2ccc(Cl)cc2F)C1c1cccc(Cl)c1F (stereo not given) | -9.26% | – | -5.34% | – | –
O=C(CCCc1nnc2n3nc(-c4ccccc4)nc3c3ccccc3n12)N1CCN(Cc2ccccc2)CC1 | -4.98% | 4.77% | -0.395% | 5.49% | -6.65%
COc1ccc(CC(=O)N2Cc3ccccc3CC23CCCN(C(=O)CN)C3)cc1 (stereo not given) | -5.36% | -1.93% | -4.31% | -11.2% | -11.5%
CC1=CC(=O)C2C(C)(C)CCCC2(C)C12CCC1(COC(=O)C1)O2 (stereo not given) | 1.2% | -4.69% | 7.2% | -13.4% | 0.849%
Cc1c(CC(=O)N(C)C(C)C)c2c(n1Cc1ccccc1F)CCCC2=O | -2.9% | -1.22% | -2.44% | -6.35% | -1.04%
COC[C@@H]1CN(c2ncccn2)C[C@H]1C(=O)NCc1ccccc1OC | -0.293% | -4.71% | -0.289% | -6.9% | 3.89%
CC(C)COC(=O)c1ccc2c(c1)C1C=CCC1C(c1ccc(Cl)cc1)N2 (stereo not given) | -15.5% | -2.98% | -9.93% | -5.88% | -10.6%
COc1ccc(CN2C(=O)c3cc4sccc4n3CC2(C)C(=O)NC2CCCC2)cc1 (stereo not given) | -0.483% | 0.291% | 1.22% | -3.75% | -2.58%
CCN1CCN(c2nc3c(S(=O)(=O)c4ccccc4)nnn3c3ccc(Cl)cc23)CC1 | 2.24% | 0% | -12.6% | 2% | 1.92%
COc1cccc(CNC(=O)Cn2c(=O)oc3cc(S(=O)(=O)N4CCCC4)ccc32)c1 | -3.71% | 1.02% | 5.66% | 1.44% | -4.25%
CCC(C)NC(=O)CSc1nnc2n(Cc3ccccc3)c(=O)c3ccc(C(=O)NC(C)C)cc3n12 (stereo not given) | -0.613% | 4.94% | 3.27% | 2.86% | 1.66%
COc1ccc(-c2nc(C3CC(=O)N(c4ccc(C)cc4)C3)no2)cn1 (stereo not given) | -3.16% | -3.13% | -0.669% | -5.53% | -0.091%
